Whole data set: some 33,000 sequences, median “E-score (-0.5 to 0.5)” near -0.016, cut for the highest 2% near 0.32. The list shows a part of the results.

For the test, the target named is T1, Stp1 (UniProt B3LFK1).
T1 sequence: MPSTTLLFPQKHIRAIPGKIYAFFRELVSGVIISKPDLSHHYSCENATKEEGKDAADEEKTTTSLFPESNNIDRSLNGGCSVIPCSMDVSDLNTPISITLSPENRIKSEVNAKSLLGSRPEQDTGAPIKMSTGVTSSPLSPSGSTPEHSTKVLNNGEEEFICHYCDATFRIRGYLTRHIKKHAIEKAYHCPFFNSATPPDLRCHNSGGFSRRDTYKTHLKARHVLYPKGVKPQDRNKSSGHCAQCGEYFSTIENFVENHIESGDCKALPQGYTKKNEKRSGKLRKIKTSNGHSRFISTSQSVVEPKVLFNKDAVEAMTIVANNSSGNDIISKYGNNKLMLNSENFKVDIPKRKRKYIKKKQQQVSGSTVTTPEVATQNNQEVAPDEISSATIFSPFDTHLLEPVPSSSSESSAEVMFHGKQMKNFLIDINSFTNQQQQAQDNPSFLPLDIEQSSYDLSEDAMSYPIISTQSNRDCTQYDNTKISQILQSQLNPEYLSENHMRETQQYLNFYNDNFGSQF
Briefly: PBM E-score (8-mer binding enrichment) (E-score (-0.5 to 0.5)); higher = stronger / more preferred TF binding; most listed sequences are background and not binding sites. The note with it: protein concentration: 200 nM; construct: GST-full length. In a few lines: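 Using PURExpress in vitro transcription/translation, GST-tagged yeast transcription factors were made in full-length or DNA-binding-domain form. These were applied at about 100-200 nM to double-stranded universal all-10-mer Agilent arrays, and bound protein was detected with fluorescent anti-GST. Scans were normalised with masliner before the Universal PBM Analysis Suite assigned E-scores to ungapped eight-base words pooled with their reverse complements.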
In the case of AGGAGTGG, the “PBM E-score” value was -0.216.
Turning to CACTAGGC, the “PBM E-score” value was 0.003.
Under AGTCAGCC stands -0.144.
Turning to CCAATGGC, the “PBM E-score” value is -0.0859.
GATAAAAC: the “PBM E-score” value worked out at 0.192.
Under TACCCGGA stands 0.113; under CCGAGTCA, -0.0324.
Under AATACCAT stands 0.0597; under GGAAGACA, 0.00926; under TAGTCATA, -0.222.
As for CATGTAAA, the “PBM E-score” value stood at 0.179.
The value for ACTATTAG was 0.0245; that for AAAAGGTA was -0.0198.
On to ACTCCGAA, for which the “PBM E-score” value is -0.104.
Under ATAAAGAA stands 0.0754; under AATAACAA, 0.0296; under GAAGGCCA, -0.238.
Under CACTACTG stands -0.0901; under TCGTACAA, 0.157.
For AAGAAAAG, the “PBM E-score” value was 0.0347.
Under CCAAGCCA stands -0.0891; under CCAGCTCA, -0.18.
Consider ACTTTGTC, for which the “PBM E-score” value was found to be 0.0794.
As to CACTACCG, the “PBM E-score” value was -0.0825.
The value for CCGGCTGA was 0.0569; that for GGGGCGTA was -0.174; that for ACAAGCCG was 0.183.
Regarding GAACACGA, the “PBM E-score” value is -0.115.
For the sequence AAGATAGT, the “PBM E-score” value stood at 0.00721.
Turning to GGTTCAAC, the “PBM E-score” value was -0.0646.
Under GGTGCGAA stands -0.129.
With TCGACACA, the “PBM E-score” value was 0.128.
With ATAGAGTA, the “PBM E-score” value is 0.177.
In the case of CAACGCGG, the “PBM E-score” value was found to be 0.157.
The value for ACAGCCGC was 0.25.
The value for ACCATTCA was -0.00954; that for ATCTTATA was 0.168; that for CCCAGATA was -0.174.
For the sequence ATTGACCG, the “PBM E-score” value was determined as 0.147.
The value for ACTCCTAA was -0.0987; that for CTGGGTAA was -0.138; that for ATAACATA was 0.153.
The value for ACTGCGTA was -0.108; that for CGCCCGAG was 0.0304; that for TCCACTAA was 0.0237.
As for AAGGGCCA, the “PBM E-score” value is -0.068.
With CGCGCAAA, the “PBM E-score” value was 0.198.
As for GCTGCATA, the “PBM E-score” value came to 0.155.
The value for CTCATCAC was -0.0536.
GATCATGA: the “PBM E-score” value came to 0.0743.
The value for CAAACAAA was 0.0264; that for AAGGGAGA was -0.253; that for TGGCTACA was -0.0168.
The value for CACCTTGC was -0.0534; that for AGCGTCGA was -0.0232.
In the case of CAAACAGC, the “PBM E-score” value worked out at 0.0389.
Under GGTTGGAC stands -0.209.
Under CGACGGTC stands -0.258; under AAGTGCTA, -0.237; under ACCCCGAT, -0.189.
In the case of AGCTTTCA, the “PBM E-score” value is -0.104.
For AATGGCCA, the “PBM E-score” value was -0.213.
For AAGGTATC, the “PBM E-score” value was 0.00886.
The value for CTATGGTC was -0.0791; that for CTGGCGTA was -0.266.
Take AATCCGCA: the “PBM E-score” value was determined as 0.135.
ACGCTTTC: the “PBM E-score” value is -0.0887.
With CTGGCATC, the “PBM E-score” value is -0.164.
In the case of AGGGCCTA, the “PBM E-score” value is -0.25.
In the case of AATGTGCT, the “PBM E-score” value came to 0.0814.
The value for TCCGGTCA was -0.114; that for AACACAAT was 0.0477.
With GTCCAGTA, the “PBM E-score” value is -0.174.
The value for ATTGTACG was 0.152; that for GAAACTAA was 0.0104.
The value for GCTATGAA was 0.00421; that for CTGCCCCA was -0.0878; that for ATCGGGTG was -0.0912.
Under ATACACGC stands 0.136; under ACTATAGG, -0.135.
Take CGGGGGAC: the “PBM E-score” value was -0.29.
In the case of AATCTCCA, the “PBM E-score” value was -0.131.
Under CAAAGTAG stands -0.0838; under ACCATCAG, -0.216.
The value for CATTGGAA was 0.102; that for AGCTTATA was -0.0428.

(Values after the supplement of paper PMC3334620.)
